Inconclusive results and toxic doses are left out. A number of entries come with more than one value. The list is limited to them. An entry can have further records. Values given together repeat one measurement in other runs, samples, wells, individuals or studies. Peptide text beside a SMILES is read from it. * marks the point of attachment. Trt = c1ccc(C(c2ccccc2)(c2ccccc2)*)cc1; Cbz = O=C(OCc1ccccc1)*; Bn = c1ccc(C*)cc1; βAla = NCCC(=O)O
System: BDF1 mice, B16 melanoma ip, median survival T/C
Experiment: NCI In Vivo Anticancer Drug Screen. Data for tumor model B16 Melanoma (intraperitoneal) in B6D2F1 (BDF1) mice
Details: endpoint: median survival time, higher = longer survival
Experimental: The antitumor activity of compounds was measured in mice bearing transplantable tumors. Survival or tumor size were measured and the results are expressed as the measurement made in the treated group (T) divided by the measurement made in the vehicle treated control group (C). The tumor model used in this assay is B16 Melanoma (intraperitoneal) in B6D2F1 (BDF1) mice

[1] = dose: 6.25 mg/kg/injection, schedule: Q01DX009 (ip), vehicle: Klucel (hydroxypropylcellulose) (HPC)

O=C(O)C(O)C(=O)O.[NH2-].[NH2-].[Pt+2]
T/C (dose: 2.0 mg/kg/injection, schedule: Q01DX009 (ip), vehicle: other): 98 % of control and 187 % of control | T/C (dose: 4.0 mg/kg/injection, schedule: Q01DX009 (ip), vehicle: other): 122 % of control, 162 % of control, 199 % of control

CCC(C(C)N1CC(=O)NC(=O)C1)N1CC(=O)NC(=O)C1 (stereo not given)
T/C (dose: 2.0 mg/kg/injection, schedule: Q04DX003 (ip), vehicle: Klucel (hydroxypropylcellulose) (HPC)): 110 % of control and 154 % of control

CC1=CC(=Nc2ccc(N(CCCl)CCCl)cc2)C=C(C)C1=O
T/C [1]: 115 % of control, 117 % of control, 150 % of control

CC1(C)OC2C(COC(=O)c3ccc([N+](=O)[O-])cc3)OC(NC(=O)N(CCCl)N=O)C2O1 (stereo not given)
T/C (dose: 3.12 mg/kg/injection, schedule: Q01DX009 (ip), vehicle: saline with Tween-80): 113 % of control and 155 % of control

OCC1OC(n2cnc3cncnc32)C(O)C1O (stereo not given)
T/C (dose: 6.25 mg/kg/injection, schedule: Q01DX009 (ip), vehicle: saline): 102 % of control and 160 % of control

COc1cccc2c1C(=O)c1c(O)c3c(c(O)c1C2=O)C[C@@](O)(C(C)=O)C[C@@H]3OC1CC(N)C(O)C(C)O1 (stereo not given in full)
T/C (dose: 0.5 mg/kg/injection, schedule: Q01DX001 (ip), vehicle: water): 113 % of control and 153 % of control | T/C (dose: 2.16 mg/kg/injection, schedule: Q01DX001 (ip), vehicle: water): 90 % of control and 156 % of control | T/C (dose: 2.7 mg/kg/injection, schedule: Q01DX001 (ip), vehicle: water): 122 % of control and 150 % of control | T/C (dose: 3.6 mg/kg/injection, schedule: Q01DX001 (ip), vehicle: water): 101 % of control and 156 % of control | T/C (dose: 4.5 mg/kg/injection, schedule: Q01DX001 (ip), vehicle: water): 112 % of control and 166 % of control

CCC1(O)CC2CN(CCc3c([nH]c4ccccc34)C(C(=O)OC)(c3cc4c(cc3OC)N(C)C3C(O)(C(=O)NCCO)C(O)C5(CC)C=CCN6CCC43C65)C2)C1 (stereo not given)
T/C (dose: 4.8 mg/kg/injection, schedule: Q01DX001 (ip), vehicle: water): 120 % of control and 156 % of control

O=NN(CCCl)C(=O)NC1CCCCC1
T/C (dose: 16.0 mg/kg/injection, schedule: Q01DX001 (ip), vehicle: Klucel (hydroxypropylcellulose) (HPC)): 122 % of control and 175 % of control

COc1ccc2cc3[n+](cc2c1OC)CCc1cc2c(cc1-3)OCO2
T/C (dose: 6.25 mg/kg/injection, schedule: Q01DX009 (ip), vehicle: carboxymethylcellulose (CMC)): 92 % of control and 150 % of control

CC1CC(C)CC(C)C(O)/C(C#N)=C/C=C/CC(C2CCCC2C(=O)O)OC(=O)CC(O)C(C)C1 (stereo not given)
T/C (dose: 0.5 mg/kg/injection, schedule: Q01DX009 (ip), vehicle: saline with Tween-80): 122 % of control and 159 % of control | T/C (dose: 1.0 mg/kg/injection, schedule: Q01DX009 (ip), vehicle: saline with Tween-80): 110 % of control and 153 % of control

COC(=O)C1C2CC3c4[nH]c5cc(OC)ccc5c4CCN3CC2CC(OC)C1OC (stereo not given)
T/C (dose: 2.0 mg/kg/injection, schedule: Q01DX009 (ip), vehicle: saline): 93 % of control and 184 % of control

COc1cccc2c1C(=O)c1c(O)c3c(c(O)c1C2=O)C[C@@](O)(/C(C)=N\NC(=O)CO)C[C@@H]3OC1CC(N)C(O)C(C)O1 (stereo not given in full)
T/C (dose: 12.5 mg/kg/injection, schedule: Q01DX009 (ip), vehicle: saline): 102 % of control and 165 % of control

CCOC(=O)C1C(=O)C(CN(CCCl)CCCl)C(=O)C(C(=O)OCC)C1c1ccc(O)cc1 (stereo not given)
T/C [1]: 122 % of control and 160 % of control

CN(C)c1ccc(/C=C/c2cc[n+](C)cc2)cc1
T/C (dose: 2.0 mg/kg/injection, schedule: Q04DX003 (ip), vehicle: saline with Tween-80): 90 % of control and 155 % of control

CCC1(CC)OC2=C(CC(C#N)(C#N)C(C#N)(C#N)C2)O1
T/C (dose: 6.25 mg/kg/injection, schedule: Q04DX003 (ip), vehicle: Klucel (hydroxypropylcellulose) (HPC)): 93 % of control and 175 % of control

COC1OC2COC(c3ccccc3)OC2C(O)C1N (stereo not given)
T/C (dose: 50.0 mg/kg/injection, schedule: Q04DX003 (ip), vehicle: saline with Tween-80): 91 % of control and 150 % of control

O=C1c2cccc3cc([N+](=O)[O-])cc(c23)C(=O)N1CCN1CCCC1
T/C (dose: 12.5 mg/kg/injection, schedule: Q01DX009 (ip), vehicle: saline with Tween-80): 105 % of control and 162 % of control

COc1cc(NC(=O)CN(CCCl)CCCl)cc(OC)c1OC
T/C (dose: 50.0 mg/kg/injection, schedule: Q01DX009 (ip), vehicle: saline with Tween-80): 109 % of control and 160 % of control

COC(=O)C(CSC(c1ccccc1)(c1ccccc1)c1ccccc1)NC(=O)C(CSCc1ccccc1)NC(=O)CCNC(=O)OCc1ccccc1 (stereo not given) ({Cbz-βAla}-Cys(Bn)-Cys(Trt)-OMe; configuration not given here)
T/C (dose: 200.0 mg/kg/injection, schedule: Q01DX009 (ip), vehicle: Klucel (hydroxypropylcellulose) (HPC)): 96 % of control and 153 % of control

— PubChem BioAssay AID192 (DTP/NCI, 2004)
